Assay results from PubChem BioAssay AID504832 (National Center for Advancing Translational Sciences (NCATS), 2011).
About 18,000 (5.8%) of roughly 310,000 compounds were called active. Inconclusive means that the source gave no clear call. Such entries were picked first, then a sample of the others. Calls follow the shape of the dose curve; as a rule, active = well fitted inhibition curve with a large enough effect; inconclusive = small, poorly fitted or top-dose-only effect, or another doubt; inactive = no such curve, though single readings can be large or run the other way. Potencies of inconclusive entries are left out as doubtful fits.

Experiment: Primary qHTS for delayed death inhibitors of the malarial parasite plastid, 48 hour incubation
Details: P. falciparum luciferase growth in erythrocytes; series mostly up to 28.7 µM; activity change, negative = inhibition: at the top concentration
In short: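 A one-generation exposure of luciferase-tagged malaria parasites in RPMI 1640/Albumax erythrocyte culture, 37 C and 5% CO2. Inhibition is inferred from decreased luminescence after adding detection reagent.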
% is scaled to controls: 0 for no effect and ±100 for the full control effect; potency is read from the fitted curve at half-maximal effect; tags tell the direction and shape of the fitted curve.

SMILES	Potency	activity change, negative = inhibition
COC(=O)c1sc2cc(C(F)(F)F)cnc2c1-c1ccccc1	inconclusive [inhibitor, partial curve, poor fit]	–
COc1ccc2c3c(cccc13)N(C)N=C2C	active: 10.4 µM	–
O=C(CSc1ccc(Cl)cc1)Nc1ccccc1Oc1ccccc1	inconclusive [inhibitor, partial curve, poor fit]	–
Cc1ccc(N2CCN(C(=O)N3CCCC3)CC2)cc1Cl	inconclusive [inhibitor, single point]	–
COc1ccc(CN=C(C#N)C2=C(O)c3ccccc3C2=O)cc1	inconclusive [inhibitor, single point]	–
O=C(Nc1nccs1)c1ccc(CSc2nnnn2-c2ccccc2)cc1	inconclusive [inhibitor, partial curve, poor fit]	–
COCCN1C(=O)CS/C1=C(/C#N)C(=O)NCc1ccco1	inconclusive [inhibitor, partial curve, poor fit]	–
CCC(=O)Nc1cccc(C(=O)/C=C/c2cccs2)c1	inconclusive [inhibitor, partial curve, poor fit]	–
O=c1ccn(C2OC(COP(=O)(O)OC3C(CO)OC(n4ccc(=O)[nH]c4=O)C3O)C(O)C2O)c(=O)[nH]1 (configuration not stated)	–	inactive: -3.71%
C=CC(C)Sc1nc2c(c(=O)n(C)c(=O)n2C)n1Cc1ccccc1Cl (configuration not stated)	inconclusive [inhibitor, single point]	–
O=C(C(NS(=O)(=O)c1cccs1)c1ccccc1)N1CCN(c2ccccc2)CC1 (configuration not stated)	inconclusive [inhibitor, partial curve, poor fit]	–
O=C(CN1CCCC1)Nc1nc(-c2ccc3c(c2)CCN3C(=O)c2ccccc2F)cs1	active: 14.7 µM	–
COc1ccc2[nH]cc(/C=C/C(=O)c3ccccc3)c2c1	–	inactive: 375%
O=C(O)c1ccccc1-n1c2ccccc2c2ccccc21	–	inactive: 119%
O=C(OCC(=O)N1CCCCC1)c1cc2ccccc2cc1O	–	inactive: 52%
CCn1cc(C(=O)O)c(=O)c2cc(F)c(N3CCNCC3)cc21	inconclusive [inhibitor, single point]	–
COc1cccc(Oc2cnc(N)nc2-c2ccc(OC)cc2O)c1	inconclusive [inhibitor, single point]	–
COc1ccc(N/C=C(\C#N)S(=O)(=O)c2ccc(OC)cc2)cc1	–	inactive: -15.7%
CN(C)S(=O)(=O)c1cccc(N=C2SCCN2Cc2ccccc2)c1	inconclusive [inhibitor, partial curve]	–
CCc1ccccc1N1C(=O)CC(Sc2nccc(C)n2)C1=O (configuration not stated)	–	inactive: -15.2%
O=C(NC(Cc1ccccc1)c1nc2ccccc2[nH]1)c1cccc([N+](=O)[O-])c1 (configuration not stated)	inconclusive [inhibitor, single point]	–
O=C(Nc1ccc(CN2CCCCC2)cc1)c1ccc(Br)o1	inconclusive [inhibitor, single point]	–
COc1ccc(NC(=O)N(Cc2cc3cc(OC)ccc3[nH]c2=O)CC2CCCO2)cc1 (configuration not stated)	inconclusive [inhibitor, single point]	–

SMILES	Potency	activity change, negative = inhibition
O=C(c1ccco1)N(CCCN1CCOCC1)c1nc(-c2ccc(Cl)cc2)cs1	inconclusive [inhibitor, partial curve]	–
O=C(Nc1ccc2c(c1)OC1(CCCC1)O2)C1CC1	inconclusive [inhibitor, single point]	–
Cc1cnc(C(=O)Oc2ccc(-c3ccccc3)cc2)cn1	–	inactive: -6.57%
CCN1CCN(c2ccc(S(=O)(=O)N3CCOCC3)cc2NC(=O)c2ccccc2OC(F)F)CC1	inconclusive [inhibitor, partial curve, poor fit]	–
COc1ccc(/C=C/C(=O)c2oc3ccc(F)cc3c2C)cc1	inconclusive [inhibitor, single point]	–
CCOC(=O)c1c(C)[nH]c(N=Nc2ccccc2Cl)c1C	inconclusive [inhibitor, partial curve, poor fit]	–
CCCC(=O)NC(=S)Nc1ccc(N2CCOCC2)c(Cl)c1	inconclusive [inhibitor, single point]	–
COc1ccc(C(=O)NC(=S)NC(C)(C)C)cc1Br	inconclusive [inhibitor, single point]	–
O=C(Cn1c(-c2ccccc2)noc1=O)Nc1ccc(N2CCCCCC2)cc1	inconclusive [inhibitor, single point]	–
CCOC(=O)c1c(NC(=O)c2ccc(N3C(=O)[C@@H]4[C@H](C3=O)[C@H]3C=C[C@@H]4C3)cc2)sc2c1CC(C)CC2 (some centres not stated)	–	inactive: -2.93%
Cc1cc(C(=O)NNC(=O)COc2c(C)cc(Br)cc2C)n[nH]1	–	inactive: 5.33%
CCCCCn1c(=O)c(C(=O)NCCc2ccccc2)c(O)c2ccccc21	active: 14.7 µM	–
CC1(C)C(=O)OC(c2c3ccccc3cc3ccccc23)C(C)(C)C1=O (configuration not stated)	inconclusive [inhibitor, single point]	–
Oc1ccc(/C=N/Nc2cccc(Cl)n2)c(O)c1	–	inactive: 138%
Nc1ccc(N2CCCCC2)cc1N1CCCCC1	active: 3.29 µM	–
O=S(=O)(c1ccc(F)cc1)N1CCN(c2ccc(F)cc2)CC1	–	inactive: 0.865%
Cc1nc(C(=O)NNC(=O)c2ccc(Cl)cc2)c(C(F)(F)F)o1	inconclusive [inhibitor, single point]	–
O=C(O)CCNS(=O)(=O)c1cccc(Br)c1	inconclusive [inhibitor, single point]	–
COc1ccc(S(=O)(=O)N2CCOC2CNC(=O)C(=O)NCCCN2CCOCC2)cc1C (configuration not stated)	–	inactive: -1.31%
Cc1ccc(C2(c3noc(CN(C)Cc4cccnc4)n3)CCCC2)cc1	inconclusive [inhibitor, partial curve, poor fit]	–
Cc1nn(-c2ccccc2)c(C)c1/C=N/NC(=O)c1cc(-c2ccc(Cl)s2)[nH]n1	inconclusive [inhibitor, single point]	–
CCCS(=O)(=O)c1nc(S(=O)(=O)c2ccc(C)cc2)c(NCCCN2CCOCC2)s1	inconclusive [inhibitor, partial curve]	–
Cc1ccccc1C(=O)Nc1ccccc1-c1nnn(CC(=O)Nc2ccc3c(c2)OCCO3)n1	inconclusive [inhibitor, single point]	–

SMILES	Potency	activity change, negative = inhibition
Cc1cc(=O)oc2cc(NC(=O)c3cccc(S(=O)(=O)N(C)C)c3)ccc12	–	inactive: -0.125%
CNc1c([N+](=O)[O-])cnn1-c1ccc(C)cc1	active: 3.29 µM	–
COc1ccc(/C=C(/NC(=O)c2ccc(OC)c(OC)c2)C(=O)NCCc2c[nH]c3ccccc23)cc1	inconclusive [inhibitor, single point]	–
CCN(C(=O)c1c(-c2ccccc2Cl)noc1C)C1CCCCC1	inconclusive [inhibitor, single point]	–
COc1ccc(NC(=O)COC(=O)c2c(-c3ccccc3)noc2C)cc1	inconclusive [inhibitor, partial curve, poor fit]	–
O=C(O)CC12CC3CC(C1)CC(n1ncc(NCc4ccccc4Cl)c(Cl)c1=O)(C3)C2	inconclusive [inhibitor, single point]	–
CCOC(=O)Cn1cnc(-c2ccc([N+](=O)[O-])cc2)c1	inconclusive [inhibitor, single point]	–
O=C(COc1coc(CN2CCCc3ccccc32)cc1=O)Nc1ccccc1	inconclusive [inhibitor, partial curve]	–
COCC(C)n1c(SCC(=O)NC(=O)Nc2ccc3c(c2)OCCO3)nc2ccccc2c1=O (configuration not stated)	active: 11.7 µM	–
CC(=O)c1c(C)[nH]c(C(=O)OC(C)C(=O)Nc2ccc(C)c(S(=O)(=O)N3CCOCC3)c2)c1C (configuration not stated)	active: 9.28 µM	–
O=C(NC1CCCCC1)c1ccc(CS(=O)Cc2ccccc2Cl)o1 (configuration not stated)	–	inactive: -24%
COc1ccc(NC(=O)CN(C)C(=O)CSCc2c(C)noc2C)cc1	inconclusive [inhibitor, single point]	–
C/C=C\C=C\C(=O)Nc1cccc(C2=NOC3(C2)C[C@@H](C(N)=O)N(C(=O)C(c2ccccc2)c2ccccc2)C3)c1 (some centres not stated)	inconclusive [inhibitor, partial curve, poor fit]	–
O=C(NCCCN1CCN(Cc2ccccc2)CC1)c1nnc(Cc2c(F)cccc2Cl)o1	inconclusive [inhibitor, single point]	–
O=S(=O)(Nc1ccc(Cc2ccncc2)cc1)c1ccc(Cl)c(Cl)c1	inconclusive [inhibitor, partial curve, poor fit]	–
Cc1cc(C(=O)OCC(=O)NC(C)c2ccc(F)cc2)c(C)o1 (configuration not stated)	inconclusive [inhibitor, single point]	–
COC(=O)c1c(NC(=O)c2cccnc2Cl)sc(C(=O)N(C)C)c1C	–	inactive: 7.49%
Cc1ccccc1NC(=O)N1C2CCC1CC(O)(c1cccnc1)C2 (configuration not stated)	inconclusive [inhibitor, full curve, poor fit]	–
COc1ccc(C(=O)Nc2ccc(C(=O)NCCc3ccc(OC)c(OC)c3)cc2)cc1	inconclusive [inhibitor, partial curve, poor fit]	–
CC(=O)Nc1cccc(-c2nnc(SCc3ccccc3C#N)n2C)c1	inconclusive [inhibitor, single point]	–
CCOc1ccc(C(=O)NCCN2CCOCC2)cc1	–	inactive: 24.9%
